Data published in the supplement of paper PMC11876631.
Positions count from the first letter of the chain named. In names and notes the source's numbering stands. ± gives the standard deviation of the averaged measurements. Laboratory Escherichia coli strains with one amino-acid change in an essential protein, pooled on minimal glucose agar with carbenicillin or gentamicin at twice the control MIC (plus kanamycin and chloramphenicol for the plasmids), 48 h. Fold change of barcode share against drug-free plates; higher = less susceptible. Active = above 20 in both replicates (the paper's putatively resistant). '<' = one read or none on drug, '>' = one read or none on a drug-free plate. Shares are relative, so most strains fall below 1 when a few take over. Listed are strains with at least 15 reads on both drug-free plates, and hits; most hits rest on fewer reference reads. Replicate rank correlation about 0.5. Edits are read from barcodes.

B1: trpC V446W (protein)
chain: MMQTVLAKIVADKAIWVEARKQQQPLASFQNEVQPSTRHFYDALQGARTAFILECKKASPSKGVIRDDFDPARIAAIYKHYASAISVLTDEKYFQGSFNFLPIVSQIAPQPILCKDFIIDPYQIYLARYYQADACLLMLSVLDDDQYRQLAAVAHSLEMGVLTEVSNEEEQERAIALGAKVVGINNRDLRDLSIDLNRTRELAPKLGHNVTVISESGINTYAQVRELSHFANGFLIGSALMAHDDLHAAVRRVLLGENKVCGLTRGQDAKAAYDAGAIYGGLIFVATSPRCVNVEQAQEVMAAAPLQYVGVFRNHDIADVVDKAKVLSLAAVQLHGNEEQLYIDTLREALPAHVAIWKALSVGETLPAREFQHVDKYVLDNGQGGSGQRFDWSLLNGQSLGNVLLAGGLGADNCVEAAQTGCAGLDFNSAVESQPGIKDARLLASWFQTLRAY
B2: trpC V446Q (protein)
chain: B1 chain with W446Q
B3: can I116A (protein)
chain: MKDIDTLISNNALWSKMLVEEDPGFFEKLAQAQKPRFLWIGCSDSRVPAERLTGLEPGELFVHRNVANLVIHTDLNCLSVVQYAVDVLEVEHIIICGHYGCGGVQAAVENPELGLANNWLLHIRDIWFKHSSLLGEMPQERRLDTLCELNVMEQVYNLGHSTIMQSAWKRGQKVTIHGWAYGIHDGLLRDLDVTATNRETLEQRYRHGISNLKLKHANHK
B4: trpC V446D (protein)
chain: B1 chain with W446D
B5: trpC V446P (protein)
chain: B1 chain with W446P
B6: trpC L405A (protein)
chain: B1 chain with L405A, W446V
B7: trpC L405W (protein)
chain: B1 chain with L405W, W446V
B8: trpC L405Q (protein)
chain: B1 chain with L405Q, W446V
B9: trpC L405P (protein)
chain: B1 chain with L405P, W446V
B10: trpC L404A (protein)
chain: B1 chain with L404A, W446V
B11: trpC L404W (protein)
chain: B1 chain with L404W, W446V

Target: Escherichia coli (laboratory strain)
Test: barcode share on antibiotic plates over drug-free plates; higher = less susceptible
Conditions: antibiotic: carbenicillin; 2× MIC (3.1 µg/mL)
Procedure: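 A pool of E. coli strains, each edited to carry one amino-acid change in an essential protein, was grown for 48 h on minimal glucose agar with or without antibiotic; strain barcodes were sequenced; mean of two replicates.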

Protein | fold change of barcode share
B1 | 0.75 ± 0.013
B2 | 0.44 ± 0.0054
B3 | 0.85 ± 0.37
B4 | 0.659 ± 0.14
B5 | 0.489 ± 0.072
B6 | 0.671 ± 0.078
B7 | 2.52 ± 0.29
B8 | 0.705 ± 0.42
B9 | 1.11 ± 0.13
B10 | 0.666 ± 0.18
B11 | 0.581 ± 0.04

Same assay, conditions: antibiotic: gentamicin; 2× MIC (MIC 0.45 µg/mL)

Protein | fold change of barcode share
B1 | 0.0255 ± 0.0034
B2 | 0.0155 ± 0.0096
B3 | < 0.00899
B4 | 0.0234 ± 0.014
B5 | 0.0136 ± 0.008
B6 | 0.0137 ± 0.00092
B8 | 0.0113 ± 0.0062
B9 | < 0.00775
B10 | 0.0237 ± 0.021
B11 | 0.00993 ± 0.0031
